Some of the results follow. At the low end of the ranking the order means little.
Each sequence was assayed against SIX1-Q177R homeodomain (UniProt Q15475) (assay: universal protein binding microarray). Conditions: Universal all-10-mer PBM (8x60K, AMADID 030236), 300 nM GST-tagged protein, Alexa Fluor 488 anti-GST; buffer, salt, pH and temperature not stated; high values mean tight binding; most listed sequences are background and not binding sites; double strand, one strand shown.

Sequence | binding signal [E-score]
GACCAGTA | 0.071
GAAGTAAC | -0.0331
ATACAGCC | -0.146
GGCGTAAA | 0.0835
GCATGCAA | -0.0161
ACGGATAC | 0.28
AGGCCGGA | -0.021
TAAATGGA | -0.0423
CGTCTCGA | 0.0661
AAAACGAT | -0.0921
ATTAGCTG | -0.192
ACCTACCG | -0.0295
CTGGCCAA | -0.0449
CATTAAAC | 0.0376
CTACGACA | 0.172
CAGTAGCC | 0.00409
GTATGCGA | 0.0192
AAACGGTT | -0.221
GAAGCCAC | -0.279
AGGGTCAG | 0.0629
CCGACAAA | -0.13
CAACGCTC | -0.123
ACTTCTGG | 0.0316
CGTCAGGC | -0.0745
ACCACGTC | 0.182

Sequence | binding signal [E-score]
CCTGGTTC | 0.0333
GCGCCCAA | -0.0806
GGGGAAAC | 0.0588
ACAATAGG | -0.0569
CTCGAAAA | -0.281
TCACCCGA | -0.0103
CAAAGTGG | -0.0842
CAGAATAC | -0.0488
CTTTTGTA | -0.146
ACCTAACC | 0.11
GAAAACCC | -0.00386
ATTTTGAG | 0.0217
CTAAATCA | -0.131
GTTATAGA | 0.005
GAGCGCAA | -0.202
CTGCTGGC | -0.104
CCCGACCC | 0.187
CTGGGTTC | 0.11
GACAGCAC | 0.0155
CAGGTCGA | -0.0691
CTGACAAC | -0.00377
GTTCTAGA | -0.018
GATTACCA | -0.124
CGCCACCA | -0.0251
CCAATTGG | 0.121

Sequence | binding signal [E-score]
GGTCAACA | 0.075
CTTACCTA | -0.106
CTGCCGAA | -0.037
GCGTAATA | -0.0788
ACATTAGT | 0.039
GATCCAGA | 0.0537
CTCTACCA | 0.0673
CTCCAAAC | 0.119
CTTGTCTA | -0.149
CCTCTAGC | -0.102
AGACCTAC | -0.131
CATCAGCC | -0.241
AGGTACAG | -0.114
CCTAGAGA | -0.171
ATGCCCCG | 0.015
GGTATTCA | 0.058
GAAACGAC | -0.0623
ACCACTGA | 0.0218
CAACGAAG | -0.0375
CGGCCTAA | 0.00626
CATGTCCC | -0.246
GACATTAC | -0.0797
CCGCACGG | 0.0336
CTAGACGA | -0.0204
CTGAGACC | -0.131

Sequence | binding signal [E-score]
AATGGGTG | 0.281
ACTCCAGT | 0.139
GCCATGCA | -0.149
AATTTTTG | -0.0721
AAGATGCG | -0.0129
CACTTACA | 0.352
ACTAGATC | 0.06
AAGGAAAC | -0.0558
GCGAGCTA | -0.162
CATGATGA | 0.0428
ACAAGCAA | -0.108
ACTGAATA | -0.132
ATAGTTAA | -0.058
ACATCGAG | -0.0722
TCTGGCAA | -0.193
GAGTGGAA | -0.0479
GACCGATA | -0.0217
AGTATCGG | 0.208
ACCTGCGG | 0.0488
CAGCCCTC | -0.0853
CTAGGAAA | -0.208
CACGGAGC | 0.163
TAGTGCAA | -0.111
TAGATGGA | 0.146
AAGTTAGG | -0.0455

Sequence | binding signal [E-score]
GTGGACAC | 0.419
GAGGCTAC | 0.0789
CCCATTTC | -0.0802
TATATTGA | 0.0504
GAAACCGA | -0.0924
AGCCATGA | -0.0361
ACTCTAAC | -0.0554
TACTTATA | -0.0918
ACTGCACG | 0.0778
AGGCCCAC | -0.161
CGGGGAGC | -0.146
CAAGAGGG | -0.0151
TAACATTA | -0.0975
CGGCCTGA | -0.0871
AGTAACAA | -0.189
AGCCGTTA | -0.246
GACAGTAA | -0.0716
AGTCTGAG | -0.0672
CTGCCCCA | -0.075
CGTGCTTA | 0.0941
CTCTAGCC | -0.0924
GCTTGGAC | -0.0822
CATAACCG | -0.0406
ATCTCAGC | -0.103
ATTACTAC | 0.0498

Sequence | binding signal [E-score]
AACTTCGA | -0.337
AAGGACAA | -0.091
ATCCCTGC | 0.16
ACGATGTC | -0.13
AGTGTAAG | 0.415
TGGCAACA | 0.0701
ACATCCGA | -0.0659
AGGATGAC | -0.106
ACACGGGT | 0.453
ATCCAGCG | -0.0748
CCGCTACC | -0.0464
ATGTGCAA | -0.175
CGATCTGC | -0.0353
CTTTGGCC | -0.193
CTTTCATA | -0.12
ACAAATCA | -0.11
CGGGAAAC | -0.0566
CAGAGATC | -0.206
GGTTCATA | 0.103
GCAAAAGC | -0.211
CTATGCTA | -0.0988
CGACGCTA | 0.0107
CAGTTACG | -0.033
AGGAGAAG | -0.14
TGCGCGAA | 0.0437

Sequence | binding signal [E-score]
GAAAATCC | -0.129
ACACCGCG | 0.481
ATGCATGA | -0.0633
CATATTGA | -0.127
AGCCCGTC | -0.0863
AGATACGA | -0.114
ACGTTGCC | -0.276
CGGAGTCC | 0.132
CCGGAAAC | 0.0123
CTCCACGC | -0.00874
ATTGTGTC | 0.219
CCTGCCGA | -0.125
ACTATGCT | -0.0562
ACTATTTA | 0.0639
CAGACCGC | -0.0989
CGAGAAGC | -0.0205
TACAGATA | -0.0687
CATGACGC | 0.0528
CAGCTGCA | -0.133
AGTCGCTG | -0.122
TATCTTGA | -0.104
CCCCAGTC | -0.0542
CCCGTGTC | 0.458
ACCACACC | 0.407
AAGGCGAA | -0.0583

Sequence | binding signal [E-score]
ACATCAAC | -0.0413
AGGCAGAG | -0.294
GCCGGACC | -0.207
GCCATGCC | -0.181
ATCAAATC | -0.0527
GAACGTGA | -0.144
ACCGCCCC | 0.157
AGACAGTG | 0.072
GTCTTTTA | 0.00775
AATGAACC | 0.019
CAAAGTCA | -0.348
ACTGTGGG | 0.103
TATCACCA | 0.0633
CGGCCTTC | -0.0834
ATACAGGA | -0.298
AACAGGAT | -0.0143
AATCGGGC | 0.0203
GTTTTTGA | 0.0762
CCGTGACC | 0.0574
ACAAGGCT | -0.115
GATCTGCC | 0.0106
ATTATGAG | -0.162
AGGAAACG | -0.227
TCTAAAAA | -0.141
CACCCGCG | 0.301

Sequence | binding signal [E-score]
AAACGTGG | -0.251
ACTTCGAT | -0.169
ATCCCATG | 0.0869
AAATCTAG | -0.103
TGCAAACA | 0.0129
CGGAGGCA | 0.0252
TTGTGAAA | 0.106
AGTGGGTG | 0.277
AAGTCCGA | -0.0441
ACATGCCT | -0.199
CCCATCGC | -0.0856
AGGAAGGC | -0.22
TTCGACAA | -0.00543
ACTCCATA | 0.201
CCGATCTC | 0.0539
TACAAAAA | 0.102
TAGGCAGA | -0.0977
AATAAGCG | -0.257
ACCCCACC | 0.327

— paper PMC10668032
